The BET-seq Pho4 binding data (Le et al. 2018)
This is one part of the list. The energies were worked out here from pooled read counts, against the library average; single values are noisy.

Target: T1, Pho4 (S. cerevisiae) (UniProt P07270)
T1 sequence: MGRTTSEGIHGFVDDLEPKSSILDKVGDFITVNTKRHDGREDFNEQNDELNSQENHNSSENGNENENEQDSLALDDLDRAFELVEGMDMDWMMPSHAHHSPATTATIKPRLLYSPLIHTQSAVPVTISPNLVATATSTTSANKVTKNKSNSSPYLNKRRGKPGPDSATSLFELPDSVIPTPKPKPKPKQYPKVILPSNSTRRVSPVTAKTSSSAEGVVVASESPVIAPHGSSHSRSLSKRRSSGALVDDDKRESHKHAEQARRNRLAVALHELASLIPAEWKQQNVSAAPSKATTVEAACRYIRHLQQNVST
Assay: relative binding free energy (BET-seq); higher = weaker binding
Settings: reference: library average

| Sequence | relative binding free energy [kcal/mol] |
| --- | --- |
| TAGGCCACGTGAGTAG | 0.16 |
| CGTCGCACGTGGTGTA | -0.08 |
| GTGAACACGTGGGTCG | -0.12 |
| TTGTGCACGTGATTTT | 0.1 |
| GGGAGCACGTGTAGTA | -0.19 |
| GATTGCACGTGTTGAA | 0.1 |
| GGGCTCACGTGATCGG | 0.42 |
| ATTATCACGTGTTTCT | 0.06 |
| CGGTTCACGTGGAGTT | 0.19 |
| GTTTCCACGTGGCGTG | 0.05 |
| TCTATCACGTGGTTAG | -0.07 |
| TATGACACGTGATTGA | 0.1 |
| TGTGTCACGTGTGCAC | 0.02 |
| AAGATCACGTGTGGTC | 0.32 |
| ATCGTCACGTGGTTAT | 0.02 |
| GGGGGCACGTGTGACG | 0.01 |
| GTCGGCACGTGTGGTT | 0.15 |
| TTGGACACGTGGCGTT | -0.1 |
| GATTCCACGTGGTTTT | 0.14 |
| ATTGGCACGTGTTGGA | -0.03 |
| TGTATCACGTGCGGGT | 0.09 |
| AGATTCACGTGGATGA | 0.33 |
| AATGTCACGTGCAGTG | 0.08 |

| Sequence | relative binding free energy [kcal/mol] |
| --- | --- |
| CGGTTCACGTGCGGTA | 0.18 |
| GTGTTCACGTGGTAAT | 0.19 |
| GTTTGCACGTGAGGAT | 0.32 |
| TATGTCACGTGGCCGG | -0.09 |
| AGGACCACGTGGGCGG | -0.24 |
| ATAATCACGTGGGTCT | -0.02 |
| TATTGCACGTGGTTTA | -0.11 |
| GAGGGCACGTGGATGG | 0.07 |
| CGTGGCACGTGTGGAC | 0.1 |
| ATAATCACGTGGAGGC | 0.21 |
| AGCGCCACGTGGGGGG | -0.41 |
| TTTAACACGTGGCATT | -0.09 |
| GTCGTCACGTGATAGT | 0.13 |
| GTGTCCACGTGGTGAG | -0.03 |
| TGCTGCACGTGTATGA | 0.09 |
| GGGTTCACGTGCCAGG | 0.19 |
| TGTCACACGTGGAGGG | -0.02 |
| TTGGGCACGTGTTGGA | 0.04 |
| GTTGGCACGTGAGCGG | 0.07 |
| AGCGTCACGTGTAAAG | 0.14 |
| ATGGTCACGTGAATTA | 0.42 |
| GTGGCCACGTGCTTGG | -0.17 |
| GGGTACACGTGTTAGC | 0.07 |

| Sequence | relative binding free energy [kcal/mol] |
| --- | --- |
| TTATGCACGTGGGGGC | -0.12 |
| TGGTACACGTGGTTGC | 0.22 |
| TTTCGCACGTGGTTCG | -0.12 |
| ATGTACACGTGGTAAA | 0.05 |
| GAATGCACGTGGGTCT | -0.09 |
| TTAAACACGTGGTGCT | -0.06 |
| TCCGACACGTGTTGGT | 0.3 |
| TCTGACACGTGGTCGT | 0.02 |
| GTGGTCACGTGGAGGT | 0.17 |
| GGAGTCACGTGGTGCG | 0.13 |
| TCTTGCACGTGCTTGT | -0.01 |
| ATATTCACGTGTTACG | 0.19 |
| GGGAACACGTGTGGGA | 0.07 |
| TAGGTCACGTGGTCTT | 0.01 |
| GGTAGCACGTGCGGTA | 0.02 |
| GGAAGCACGTGTCGTG | -0.15 |
| GTCAGCACGTGGGCGG | -0.22 |
| TAGTGCACGTGTCATG | 0.02 |
| GTTTACACGTGGATCA | 0.28 |
| TTGTTCACGTGAATCT | 0.47 |
| GCTTGCACGTGAGTAG | 0.34 |
| CAAGGCACGTGGGGGA | -0.23 |
| AGGGACACGTGGAGGG | -0.02 |

| Sequence | relative binding free energy [kcal/mol] |
| --- | --- |
| TGCCTCACGTGGATGT | 0.3 |
| AAGGTCACGTGTGTAG | 0.15 |
| TGATACACGTGGTAGA | -0.05 |
| TGTGGCACGTGGTTCT | -0.19 |
| AAGGTCACGTGCCGGG | 0.05 |
| TTTTGCACGTGATGGT | 0.2 |
| TCTTGCACGTGAGGAG | 0.27 |
| AGGGGCACGTGGCGCC | -0.26 |
| AGATTCACGTGGTGAA | 0.3 |
| TTTTGCACGTGGTCAA | -0.14 |
| ATAGTCACGTGAGATG | 0.24 |
| GGGAACACGTGATGAG | 0.39 |
| TATTACACGTGTAGAG | -0.1 |
| GTTTTCACGTGAGGCT | 0.4 |
| TTTGCCACGTGCTAGT | -0.14 |
| TACGGCACGTGATGGT | -0.09 |
| GTGGGCACGTGGCAGA | -0.14 |
| GTTGTCACGTGCTTGA | 0.18 |
| GGTGTCACGTGTGTCA | 0.04 |
| CGGGGCACGTGACGTT | -0.08 |
| GGCTACACGTGATAGT | 0.46 |
| ACGTACACGTGTTGTA | 0.05 |
| TTCGGCACGTGGTTAG | -0.04 |

| Sequence | relative binding free energy [kcal/mol] |
| --- | --- |
| TGTTTCACGTGTAGTG | 0.38 |
| TGTATCACGTGGACGG | 0.36 |
| GGGATCACGTGGCGGA | 0.24 |
| CGGTGCACGTGGTAGC | 0 |
| AAATGCACGTGCTTTT | 0.07 |
| GTCTACACGTGGCGTT | 0.14 |
| TTGTTCACGTGTCAGG | 0.3 |
| TTTGACACGTGTTGGA | 0.12 |
| TGTAACACGTGATGGT | 0.1 |
| TGCTTCACGTGCGGTG | 0.2 |
| TGAGTCACGTGGTAGG | 0.02 |
| ATTGGCACGTGTGAAT | 0.01 |
| AATTTCACGTGAGGAT | 0.38 |
| TGGGACACGTGGCGAG | -0.12 |
| TTAGGCACGTGAGGCT | 0.12 |
| GTGGACACGTGGCATG | -0.01 |
| AGAGGCACGTGGTCGT | -0.09 |
| TTATTCACGTGTCAGA | 0.31 |
| TGTTTCACGTGAGTGT | 0.3 |
| GTTATCACGTGACTGG | 0.35 |
| GGGGCCACGTGATCGT | 0.05 |
| GACGTCACGTGAGGGT | 0.14 |
| CGTTTCACGTGTGGTA | 0.52 |
